Assay results as given in US20160053277A1, “Compositions Having Dicamba Decarboxylase Activity and Methods of Use” (PIONEER HI-BRED INTERNATIONAL, INC., priority 2013, published 2016).

Experiments:
[1] = 14C assay with IPTG-induced recombinant E. coli cells: 14CO2 captured from [14C]-carboxyl-labeled dicamba; details: for Enzymatic Detection level: dicamba decarboxylation activity of the protein of the given SEQ ID NO, High / Low / No; for Dicamba Decarboxylase Activity: induced recombinant E. coli cells, [14C]-carboxyl-labeled dicamba, 14CO2 capture
[2] = Saturation mutagenesis of SEQ ID NO:109: dicamba decarboxylation activity of point mutants (carbon dioxide released); details: decarboxylation activity (carbon dioxide released) of point mutant compared with unmutated backbone protein; backbone SEQ ID NO: 109

Molecule | Enzymatic Detection level [1] | Dicamba Decarboxylase Activity [1] | Fold Activity [2]
65 (protein, listed as Ailuropoda melanoleuca) MAKIDVHSHILPKEWPDLKKRFGYGGWVQLQHHNKGEAKMMKDGKVFRVVQENCWDPEVRIREMDQTGVTVQALSTVPVMFSYWAKPQDTLDLCQLLNNDLAATVANHPRRFVGLGTLPMQAPELAVKEMERCVKELGFPGVQIGSHINEWDLNAKELFPVYAVAEKLNCSLFVHPWDMQMDGRMAKYWLPWLVGMPAETTTAICSMIMGGVFEKFPKLKVCFAHGGGAFPFTVGRISHGFNMRPDLCAQDNPINPKKYLGSFYTDSLVHDPLALKLLTDVIGKDKVILGTDYPFPLGELEPGKLIESMEEFEEETKDKLKAGNALAFLGLERKQFE | Low | Low | 1.7
67 (protein, listed as Amblyomma maculatum) MASSFSAAANLKIDLHAHVTPDRWPNLRERYGYGGWLDIKHESDKTAVMSYDDGRFFRRIESNCWNIDERIADMDRTGVTVQALSTTPVLFSYWAKPEDALDFSRLQNDFVASLVNRRPDRFVGMCTVPMQSPQLAAEELKRCVSQLGFRAVIVGSHINEWTLADRALDPFYRTVKELGVSIFVHPWDMPPSTRYNKYWLQWLVGMPAETTAAICEVIFGGLLERFPRLKLCFAHGAGSFPYTVGRIQHGFDVRPDLCAVDNKIPPKGYLGEIYADSLVHNRGSLRLLLDTLGEDRVMLGSDYPYPLGEIDRPGRLIETSGLQNSVKEKLLWKKCCELPRN | Low | Low | 1.3
66 (protein, listed as Amphimedon queenslandica) MASGIKVDIHNHILPERWPDLKERYGYGGWIQLHHHCQGKARMLKDGQLFRVVDENCWSPEARIKDMDNTGVTVQALSTVPVMFSYWAKPEDTLDLCKILNNDLAQTVAKFPKRFVGLGTLPMQAPELAVQELKRCIKELGFPGVQIGSHVNEWNLDATELQCVFAAAEELNAAVFVHPWDMETGGRMSKYWLPWLVGMPAETATAICSVLFGGVLERHPNLKICFAHGGGSFPYTIGRIEHGFNVRPDLCATENSVNPRSYIGKVYTDSLVHDQKALKFLVDIIGEDRVVLGSDYPFPLGEHFPGKLIESIEEWDTSLKDKLLSKNAFEFLGLDPSQYET | Low | Low | 1.6
